Assay results from PubChem BioAssay AID485344 (National Center for Advancing Translational Sciences (NCATS), 2010).
In all, about 340,000 compounds went through this assay and about 6,900 (2%) were called active. Rule as the data show it: active = inhibition above about 30%; inactive = below that, where a call was filed. The entries are a selection whose mix differs from that of the whole data set. Where no call is shown, the source filed none.

Target: D(2) dopamine receptor (Homo sapiens) (UniProt P14416)
Experiment: HTS Assay for Allosteric Antagonists of the Human D2 Dopamine Receptor: Primary Screen for Antagonists; also: 0% is about no effect
Details: HEK293 TREx D2 cells, calcium flux, dopamine EC80; at 10 µM; stronger effect = higher value
Outline: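 Antagonism is scored as inhibition of an EC80 dopamine-evoked calcium signal in a force-coupled, tetracycline-inducible HEK293 T-REx D2 line, with compound present 180 s before agonist.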

UniProt P14416, sequence (P14416 whole entry, looked up): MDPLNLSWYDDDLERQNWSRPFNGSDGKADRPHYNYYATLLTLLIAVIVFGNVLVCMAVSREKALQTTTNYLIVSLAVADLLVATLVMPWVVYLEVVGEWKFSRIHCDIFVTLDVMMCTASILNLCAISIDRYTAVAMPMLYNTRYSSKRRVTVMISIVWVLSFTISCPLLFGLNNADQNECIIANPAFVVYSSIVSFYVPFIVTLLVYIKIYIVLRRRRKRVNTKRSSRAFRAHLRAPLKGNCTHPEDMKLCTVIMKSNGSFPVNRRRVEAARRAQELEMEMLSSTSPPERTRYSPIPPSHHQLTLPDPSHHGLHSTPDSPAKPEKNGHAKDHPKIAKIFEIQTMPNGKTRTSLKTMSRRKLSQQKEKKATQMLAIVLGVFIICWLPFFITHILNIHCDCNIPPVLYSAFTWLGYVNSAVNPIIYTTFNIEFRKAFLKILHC

SMILES | inhibition
COc1ccccc1CNCc1ccc(C(=O)O)s1 | -6.18%
COc1ccc(NC(=O)Cn2ncc3c(C)n(Cc4cccc(Cl)c4)c(C)c3c2=O)cc1 | -1.48%
CC1CN(CCOc2ccccc2-c2ccccc2)CC(C)O1 (centres undefined) | active: 71.1%
CC(C)c1ccc(NC(=O)c2ccc3oc(=O)c(S(=O)(=O)c4ccc(F)cc4)cc3c2)cc1 | -5.82%
CCOCCc1nn2c(=O)cc(COC(=O)COc3ccc(C)c(C)c3)nc2s1 | 5.25%
O=C(Oc1cccc(Oc2ccccc2)c1)N1CCOCC1 | active: 40.9%
COc1cn(CC(=O)Nc2c(C)cc(C)cc2C)c(CN2CCCCC2)cc1=O | 12.4%
O=C(c1ccc2c3c(cccc13)CC2)C1CCCN(Cc2ccc(OCCO)cc2)C1 (centres undefined) | active: 30.8%
Cc1nc(SCc2cc(=O)c3cccc(F)c3[nH]2)n[nH]1 | -3.07%
COc1ccc(C)cc1NC(=O)CCCN1C(=O)C(c2ccccc2)Oc2cccnc21 (centres undefined) | active: 37.9%
CCc1ccc(NC(=O)CC2C(=O)NCCN2C(=O)c2ccccc2OC)cc1 (centres undefined) | -12.2%
COc1ccc(-c2c(C)c3ccc(O)c(CN4CCCCC4)c3oc2=O)cc1OC | -2.32%
Cc1ccc2nc(N(Cc3cccnc3)C(=O)c3ccco3)sc2c1 | 16.7%
Cc1cc(C)n(-c2ccc(C(=O)N3CC(C)OC(C)C3)cc2)n1 (centres undefined) | active: 34.4%
Cc1cccc(N2CCN(C(=O)c3cn(C)c4ccc(S(=O)(=O)N(C)C)cc4c3=O)CC2C)c1 (centres undefined) | 11.9%
CCc1ccc(CNC(=O)c2ccc(CS(=O)c3ccc(Br)cc3)o2)cc1 (centres undefined) | -9.35%
CCc1nnc(SCC(=O)Nc2ccc(Cl)cc2F)c2cc3occc3n12 | 21.7%
CCOC(=O)Cn1c(=O)n(-c2ccccc2OC)c2nc(-c3ccccc3)nc(C(N)=O)c21 | 5.58%
CCc1ccc(-n2c(SCc3nc(-c4cc(OC)ccc4OC)no3)nnc2-c2ccccc2)cc1 | 1.83%
COc1ccc(C2=CC(c3ccccc3Cl)n3nc(-c4ccc(C)cc4)nc3N2)cc1 (centres undefined) | -12.4%
CCOC(=O)c1c(NC(=O)CCCOc2ccc(C)cc2)sc2c1CCC(C)C2 (centres undefined) | -7.15%
COc1ccc(-c2nc3ccccc3s2)cc1NC(=O)c1ccc(C#N)cc1F | -11.8%

SMILES | inhibition
CCn1c(C(=O)NCc2ccc(C)cc2)cc2sc(Cl)cc21 | -19.5%
CCC12CN3CC(CC)(CN(C1)C3c1cccc(OC)c1O)C2=O (centres undefined) | -15.9%
COc1cc2c(cc1NC(=O)COc1ccc(Br)c(C)c1)oc1ccccc12 | 7.86%
CCc1ccc(CN(C(=O)c2ccc(OC)cc2)C2CCS(=O)(=O)C2)cc1 (centres undefined) | -8.85%
COc1ccc(-c2onc(C)c2C)cc1S(=O)(=O)N1CCc2ccccc21 | 9.34%
Cc1noc(C)c1S(=O)(=O)Nc1ccc(C(=O)Nc2ccc(C(C)C)cc2)cc1 | 13.1%
Cc1cc(Br)cc(C)c1NC(=O)c1cnc2ccccn2c1=O | 8.3%
COc1ccc(NC(=O)C(NC(=O)Cc2cccs2)c2ccc(OC)cc2)cc1 (centres undefined) | -1.09%
Cn1c2c(c(=O)n(C)c1=O)C(c1cccc(O)c1)CC(=O)N2 (centres undefined) | 1.83%
Cc1nn2c(=O)cc(COC(=O)c3ccc(F)cc3)nc2s1 | 0.155%
COc1ccc(NC(=O)/C(Cl)=C(/Cl)S(=O)Cc2ccccc2)cn1 (centres undefined) | active: 32%
COc1ccc(C(=O)c2cn(Cc3cccc(C)c3)c3cc4c(cc3c2=O)OCCO4)cc1OC | -2.07%
CCc1ccc(NC(=O)CN2C(=O)CCSc3ccc(S(=O)(=O)N4CCCC4)cc32)cc1 | 2.07%
COc1ccc(CCNC(=O)Cn2ccc3cc(S(=O)(=O)N4CCCCC4)ccc32)cc1OC | 7.29%
CCN(CC)CCNC(=O)Cn1ncc2c3ccccc3n(Cc3ccccc3C)c2c1=O | -0.785%
Cc1ccc(N(C(=O)c2cccc(C)c2)S(=O)(=O)c2ccc(Cl)cc2)cc1 | 4.42%
Cn1nnnc1SCCCNCc1ccccc1OCc1ccccc1F | -25.5%
COC(=O)c1ccccc1NC(=O)c1cc(=O)c2ccc(C)c(C)c2o1 | 13.2%
COc1ccc(S(=O)(=O)NCCc2cn3ccsc3n2)cc1 | -14.1%
CC(=O)c1ccc(NC(=O)c2ccc(CN3C(=O)CCn4nc(C)cc43)cc2)cc1 | 6.26%
O=S(=O)(Nc1ccc(Br)cc1)c1ccc2nc(-c3ccccc3)[nH]c2c1 | 5.3%
Cc1ccc(CCNC(=O)CN2CCN(Cc3ccc(Cl)cc3)C2=O)cc1 | 4.09%

SMILES | inhibition
O=C(CCC1N=C2c3ccccc3N=C(SCc3cccc(F)c3)N2C1=O)NCc1ccc(F)cc1 (centres undefined) | -24.4%
O=C(Nc1ccccc1Br)N1CCN2CCCCC2C1 (centres undefined) | -17.4%
c1ccc(-c2ccccc2OCCCN2CCCCC2)cc1 | active: 43.1%
CCc1ccc(NC(=O)Cn2nnc(C(=O)Nc3cc(C)ccc3OC)c2N)cc1 | -0.0426%
COc1ccccc1CNC(=O)CN1C(=O)CCCc2ccccc21 | 5.21%
CCc1ccc(NC(=O)c2oc3c(c2C)-c2[nH]ncc2CC3)cc1 | -17.9%
CCc1ccc(NC(=O)c2ccc3c(c2)c(C)c(C)n3Cc2ccccc2)cc1 | 1.98%
CCCCOc1ccc(C2c3c(oc4ccccc4c3=O)C(=O)N2c2nc(C)c(C(=O)OCC)s2)cc1OC (centres undefined) | -15.1%
CCOC(=O)c1cccc(Nc2cc(C)nc(C)n2)c1 | 3.08%
CCOCCCn1c(=N)c(C(=O)NC2CCCC2)cc2c(=O)n3cccc(C)c3nc21 | 0.944%
Cc1nnc2c3ccccc3nc(N3CCN(c4cccc(Cl)c4)CC3)n12 | -7.52%
Cc1cccc(-n2ncc3c(Nc4c(C)cc(C)cc4C)ncnc32)c1 | -11.1%
Cc1noc(Cn2c(=O)c3ccccc3n(CC(=O)Nc3ccccc3C(F)(F)F)c2=O)n1 | -5.21%
O=C(CCc1ccc(Oc2cc([N+](=O)[O-])cc([N+](=O)[O-])c2)cc1)N1CCCCCC1 | active: 37.5%
Cc1ccc(NC(=O)CSc2nnc(C)c(=O)[nH]2)cc1 | -1.52%
CC1=C(c2ccc(Cl)cc2)S(=O)(=O)NC1=NCc1ccc(C)cc1 | -17%
O=C(CSc1nc2c(oc3ccccc32)c(=O)[nH]1)Nc1cccc(Cl)c1 | -6.21%
CN(C)c1cccc(C(=O)Nc2ccc(-c3nc4ccccc4s3)cc2)c1 | 20.2%
CCOC(=O)c1cccc(NC(=O)CCNS(=O)(=O)c2cccc3nonc23)c1 | -0.121%
COc1ccc(OCCCN2CCc3ccccc3C2)cc1 | active: 71.9%
